Measured values: the supplement of paper PMC11417369
± gives the standard deviation of the averaged measurements. This is one part of the list.

Test system: PfAP2-EXP AP2 domain (GST-tagged)
Experiment: gcPBM binding intensity (ln(normalized median fluorescence intensity)); higher = stronger DNA binding
Method in brief: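 Binding intensity is the highest Masliner-normalised natural-log median intensity over replicate spots in either probe orientation. To obtain it, GST-tagged P. falciparum DNA-binding domains made in E. coli were incubated for 1 h on an Agilent 4 × 180k array of primer-extended double-stranded 36-bp intergenic genomic probes plus negative controls. Detection used Alexa488 anti-GST antibody with scanning at 488 nm.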

Sequence | gcPBM binding intensity (ln)
TTAATAATAAAAAGGAGTACACTAATATACTATAAA [XGTACX_site2346] | 8.59 ± 0.099
TTAAGAAACAAAGAAAGTACACAACATAATATAGAA [XGTACX_site477] | 8.98 ± 0.43
AATAAAATCATCTATACACACAAAAAAAATAAGAAA [CACACA_site2101] | 8.66 ± 0.48
ATATAATATATATATAAACACACAAAAAAAATTATA [CACACA_site8434] | 8.74 ± 0.48
AATAACCACGGACACACACACATATATATATATATA [CACACA_site5873] | 10.2 ± 0.46
TTTAATTTTTTTTATAGTACATAAAAAATAAAAAAA [XGTACX_site5631] | 8.27 ± 0.33
TTTATTTGTGCATATACACACTTAAATATGTTTATT [CACACA_site7772] | 8.65 ± 0.2
TACAACCTTATAATTAGTACTTAGTTATGCTGTAAA [XGTACX_site6052] | 8.39 ± 0.44
CCGATATAATGGAAAACACACAAAAGATATTTATAT [CACACA_site7293] | 8.49 ± 0.67
TTTGTTATGGTTTTCTCACACATATATATATATATA [CACACA_site4617] | 10.4 ± 0.36
ACATAAAATTGGAGCAAACACACAAGGTTGAAATTA [CACACA_site505] | 8.71 ± 0.3
ATTATAATACTTTGTATGCACTAATCAATTATTAAA | 8.36 ± 0.23
CCTCATAAGTTCTTATGTACGTATTGTTCACCTTTA [XGTACX_site6640] | 8.77 ± 0.41
CTGTAAAAAATATAAACACACATAGAAATATATAAA [CACACA_site340] | 8.79 ± 0.38
GAATTATAAATTATAGTGCATAAAATTATGGCATAA [GTGCAC_site9938] | 8.56 ± 0.085
TCAAAACATTATTCCATACACACCATACTTTTTAAT [CACACA_site2770] | 8.88 ± 0.5
TTGAATTATAAGAATAAACACACAAGCTTAAAAAAA [CACACA_site8318] | 8.46 ± 0.47
TATTTAAATTTGTATAATGGACGAATTATATAGAAA [GTGCAC_negctrl_site650] | 8.53 ± 0.41
CCCACAGACGGACACACACACATATATATATATATA [CACACA_site4351] | 10.1 ± 0.36

Sequence | gcPBM binding intensity (ln)
TTATTGCATTGTTTTTATAAAAAAAAAAAAAAAATT [XGTACX_negctrl_site104] | 8.1 ± 0.44
TATTTATTGTGATACTTATATTACTTAATGATTAAA [CACACA_negctrl_site676] | 8.31 ± 0.34
TAATTATGCAGACACACACACACACCCAACTAAAAA [CACACA_site2569] | 8.76 ± 0.57
CTATTTCATGGACACACACACACAAACAAACATATA [CACACA_site4696] | 8.85 ± 0.49
ATATATTATATAAAGTGTACAAAAAAAATATATAAA [XGTACX_site8065] | 8.91 ± 0.41
ATTAATAAGAAATATACACACATGGATAAATACATA [CACACA_site1872] | 8.64 ± 0.46
TTTCTTGCTACATGAAGTACACTTTCTATGACTCGT [XGTACX_site5583] | 8.67 ± 0.33
TATGATATAATTATGTGTACACAATTTTTTTTTTTT [XGTACX_site1084] | 8.62 ± 0.092
ATATATATTTTATTCACACATAAGATTATAAAACAT [CACACA_site5369] | 8.38 ± 0.38
TGTGTTCAGTATTGCACACACACAACAAAATAAAAA [CACACA_site8017] | 8.62 ± 0.23
AATTTTAAGAGCTATACATGCACTTCATAAAAAGTG [TGCATGCA_site180] | 8.62 ± 0.27
ATAATAAAAAAAAATGCACACATATATATATATATA [CACACA_site8766] | 10.3 ± 0.34
TAACAATTAATAAAAGGTACACTTGAATATGCACCA [XGTACX_site2717] | 8.73 ± 0.3
AATATATATATATATACACACACACCGATATATATA [CACACA_site8158] | 8.79 ± 0.33
TTAATATTTAGACATGCATGCTAATTACTATATATA [TGCATGCA_site27] | 9.3 ± 0.41
AAAAGATTTATACATACACACATATTATATTCACAT [CACACA_site3713] | 8.58 ± 0.47
ATAGAACTATATTGCACACATAATATATATATATAT [CACACA_site3189] | 10.04 ± 0.078
GTAAAAAATATGACAAGTACAAGAAAAGAAAAAAGT [XGTACX_site7906] | 9.23 ± 0.6
TTATAAATATAAAAATGTACAGAAAAAAAAAATAAA [XGTACX_site863] | 8.78 ± 0.43

Sequence | gcPBM binding intensity (ln)
ATATATATAATATGCGGTACACATTAATTAAATCAT [XGTACX_site5702] | 8.79 ± 0.39
TTATTTCTCTTTTCAGTGCATTTTATAACAAAAAAA [GTGCAC_site9930] | 8.69 ± 0.28
TTATTTTATAATAAAAGTACACAAAAAAAAAAAAAA [XGTACX_site7668] | 8.37 ± 0.55
TTTTCTTGGTTCAGTGTGCACTTATATATATATATA | 10.2 ± 0.13
TAATATAAAGAAAAGGAACACACAAATATATATATA [CACACA_site8049] | 9.7 ± 0.15
TTATAATATATATACAGTACATATATAAAATAATAT [XGTACX_site5917] | 8.43 ± 0.42
ATGGACATCTATTGTTGTACACATTTTCCCATAACA [XGTACX_site5429] | 8.56 ± 0.26
GTAGAGCATAATAAAACACACACATACATACATATA [CACACA_site8217] | 8.7 ± 0.55
GAATATAAAATATATATATATATATATATATATATA [GTGCAC_negctrl_site425] | 9.96 ± 0.43
TTTCAAAAATGAGTTACACACACACGGATATAAATA [CACACA_site7116] | 8.88 ± 0.56
AATATTTTATTTTGGGTGCAAAAGAATATTATTTCA | 8.34 ± 0.071
AATATAAATATTAAAACACACATAAAAAGATTATTA [CACACA_site1764] | 8.4 ± 0.34
GTGTGAAACATAAACACACACAAAAAGAAAAAATAG [CACACA_site1227] | 8.77 ± 0.48
TGATATTTACAAATATTAAGATCTTATATTTTTTTT [CACACA_negctrl_site617] | 8.21 ± 0.36
TATATATATATATTACGTACATAGAACTTTATAAAA [XGTACX_site4485] | 9.85 ± 0.15
AATATTATAAATGATACACACTTAAAATACACGCAC [CACACA_site7305] | 8.84 ± 0.29
ATATTTATACATAAATGTACTTTTATATATTTAATA [XGTACX_site3020] | 8.29 ± 0.29
GTATATATATATATATGTACTAATTAGTAGTTTACG [XGTACX_site6274] | 8.85 ± 0.38
TATTACATAATACAAAGTACATATATTTTTTTATTT [XGTACX_site7061] | 8.16 ± 0.36
